Our source for the binding values is publication doi:10.1101/2024.12.23.630145, “Setdb1 and Atf7IP form a hetero-trimeric complex that blocks Setdb1 nuclear export” (bioRxiv, 2024).

For test [1], the target named is T1, Flag-Atf7IP(836–1270) (human) (UniProt Q6VMQ6).
T1 sequence: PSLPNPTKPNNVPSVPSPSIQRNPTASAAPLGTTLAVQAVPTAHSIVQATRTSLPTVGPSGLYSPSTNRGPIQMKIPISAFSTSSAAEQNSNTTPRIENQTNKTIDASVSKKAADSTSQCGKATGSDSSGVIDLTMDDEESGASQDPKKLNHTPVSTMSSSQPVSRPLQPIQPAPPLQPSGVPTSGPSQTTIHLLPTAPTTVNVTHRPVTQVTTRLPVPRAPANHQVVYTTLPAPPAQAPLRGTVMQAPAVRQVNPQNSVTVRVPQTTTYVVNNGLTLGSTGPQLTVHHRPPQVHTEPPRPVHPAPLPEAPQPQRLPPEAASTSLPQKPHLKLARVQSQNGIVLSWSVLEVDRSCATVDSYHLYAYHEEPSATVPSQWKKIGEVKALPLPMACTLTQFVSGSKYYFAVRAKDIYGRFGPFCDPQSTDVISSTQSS
The experiment in a line: co-IP; HEK293T cells co-transfected; lysate on anti-DYKDDDDK magnetic beads, eluted with FLAG peptide, blots with anti-FLAG, anti-HA, anti-Myc; 30mM HEPES pH 7.9, 400mM NaCl, 10% glycerol, 0.05% Tween-20, Benzonase; with or without co-expressed HA-Setdb1.

Test [2] addresses T2, FLAG-Atf7IP(Δ574–666) (human) (UniProt Q6VMQ6).
T2 sequence: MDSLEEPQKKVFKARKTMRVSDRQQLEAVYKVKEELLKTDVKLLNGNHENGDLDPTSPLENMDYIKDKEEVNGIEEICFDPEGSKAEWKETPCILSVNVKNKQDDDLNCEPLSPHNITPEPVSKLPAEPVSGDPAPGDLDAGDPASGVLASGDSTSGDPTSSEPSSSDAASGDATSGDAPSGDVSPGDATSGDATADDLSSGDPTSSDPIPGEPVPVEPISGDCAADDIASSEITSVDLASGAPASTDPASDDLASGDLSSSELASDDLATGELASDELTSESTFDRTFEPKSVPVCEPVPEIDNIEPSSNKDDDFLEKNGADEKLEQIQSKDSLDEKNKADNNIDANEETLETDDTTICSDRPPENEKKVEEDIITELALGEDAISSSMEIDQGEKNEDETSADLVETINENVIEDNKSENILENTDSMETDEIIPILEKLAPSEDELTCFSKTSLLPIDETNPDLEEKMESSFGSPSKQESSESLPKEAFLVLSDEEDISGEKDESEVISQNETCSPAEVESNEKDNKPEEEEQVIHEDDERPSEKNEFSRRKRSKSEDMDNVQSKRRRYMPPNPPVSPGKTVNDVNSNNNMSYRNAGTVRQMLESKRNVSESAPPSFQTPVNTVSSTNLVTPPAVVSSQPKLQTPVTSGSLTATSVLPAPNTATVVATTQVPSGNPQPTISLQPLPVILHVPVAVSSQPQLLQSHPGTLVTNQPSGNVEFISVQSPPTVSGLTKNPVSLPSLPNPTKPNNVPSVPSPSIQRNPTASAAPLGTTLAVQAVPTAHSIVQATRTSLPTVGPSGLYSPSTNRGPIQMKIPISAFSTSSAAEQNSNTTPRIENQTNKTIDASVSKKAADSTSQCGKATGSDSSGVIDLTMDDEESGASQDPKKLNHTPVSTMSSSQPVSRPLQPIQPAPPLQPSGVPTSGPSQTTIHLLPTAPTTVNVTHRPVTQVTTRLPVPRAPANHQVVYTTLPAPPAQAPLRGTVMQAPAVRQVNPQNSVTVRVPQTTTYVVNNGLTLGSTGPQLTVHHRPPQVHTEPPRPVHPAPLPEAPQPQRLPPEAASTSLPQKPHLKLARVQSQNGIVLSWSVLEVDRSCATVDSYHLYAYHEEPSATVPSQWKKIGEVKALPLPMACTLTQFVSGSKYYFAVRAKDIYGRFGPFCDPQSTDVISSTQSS
The description is as above.

These are yes or no findings as the source states them, for the method shown. Binding seen in cells or lysates may run through a third protein. Tags and fused reporters may be left off the sequences shown.

B1: Myc-Atf7IP (protein, UniProt Q6VMQ6 1-1270)
chain: MDSLEEPQKKVFKARKTMRVSDRQQLEAVYKVKEELLKTDVKLLNGNHENGDLDPTSPLENMDYIKDKEEVNGIEEICFDPEGSKAEWKETPCILSVNVKNKQDDDLNCEPLSPHNITPEPVSKLPAEPVSGDPAPGDLDAGDPASGVLASGDSTSGDPTSSEPSSSDAASGDATSGDAPSGDVSPGDATSGDATADDLSSGDPTSSDPIPGEPVPVEPISGDCAADDIASSEITSVDLASGAPASTDPASDDLASGDLSSSELASDDLATGELASDELTSESTFDRTFEPKSVPVCEPVPEIDNIEPSSNKDDDFLEKNGADEKLEQIQSKDSLDEKNKADNNIDANEETLETDDTTICSDRPPENEKKVEEDIITELALGEDAISSSMEIDQGEKNEDETSADLVETINENVIEDNKSENILENTDSMETDEIIPILEKLAPSEDELTCFSKTSLLPIDETNPDLEEKMESSFGSPSKQESSESLPKEAFLVLSDEEDISGEKDESEVISQNETCSPAEVESNEKDNKPEEEEQVIHEDDERPSEKNEFSRRKRSKSEDMDNVQSKRRRYMEEEYEAEFQVKITAKGDINQKLQKVIQWLLEEKLCALQCAVFDKTLAELKTRVEKIECNKRHKTVLTELQAKIARLTKRFEAAKEDLKKRHEHPPNPPVSPGKTVNDVNSNNNMSYRNAGTVRQMLESKRNVSESAPPSFQTPVNTVSSTNLVTPPAVVSSQPKLQTPVTSGSLTATSVLPAPNTATVVATTQVPSGNPQPTISLQPLPVILHVPVAVSSQPQLLQSHPGTLVTNQPSGNVEFISVQSPPTVSGLTKNPVSLPSLPNPTKPNNVPSVPSPSIQRNPTASAAPLGTTLAVQAVPTAHSIVQATRTSLPTVGPSGLYSPSTNRGPIQMKIPISAFSTSSAAEQNSNTTPRIENQTNKTIDASVSKKAADSTSQCGKATGSDSSGVIDLTMDDEESGASQDPKKLNHTPVSTMSSSQPVSRPLQPIQPAPPLQPSGVPTSGPSQTTIHLLPTAPTTVNVTHRPVTQVTTRLPVPRAPANHQVVYTTLPAPPAQAPLRGTVMQAPAVRQVNPQNSVTVRVPQTTTYVVNNGLTLGSTGPQLTVHHRPPQVHTEPPRPVHPAPLPEAPQPQRLPPEAASTSLPQKPHLKLARVQSQNGIVLSWSVLEVDRSCATVDSYHLYAYHEEPSATVPSQWKKIGEVKALPLPMACTLTQFVSGSKYYFAVRAKDIYGRFGPFCDPQSTDVISSTQSS
On to B1, for which the binding entry in test [1] and in test [2] was “no binding” in each case.
